# This is one part of the list.
# Key:
# HSkMC = human skeletal muscle cells; assay: cytotoxicity call (relative viability < 0.9); settings: 10 µM
# HepG2 = assay: cytotoxicity call (relative viability < 0.9); settings: 10 µM
# S. aureus RN4220 = assay: growth inhibition call (relative growth <= 0.2); settings: 50 µM
SMILES,cytotoxicity call (HSkMC),cytotoxicity call (HepG2),growth inhibition call (S. aureus RN4220)
CO[C@@H](CN(C)C(=O)Nc1ccc(C(F)(F)F)cc1)[C@@H](C)CN(Cc1ccccc1Cl)[C@@H](C)CO,inactive,inactive,inactive
CCCc1cc(-c2nc(-c3ccc(C)cc3)cs2)ccn1,inactive,inactive,inactive
COc1ccc(CN(C)C[C@@H]2OCCCC[C@H](C)Oc3ccc(NS(=O)(=O)c4cccs4)cc3C(=O)N([C@H](C)CO)C[C@@H]2C)cc1,inactive,inactive,inactive
COc1ccc(S(=O)(=O)N(C)C[C@@H]2Oc3ccc(NC(=O)CCCN(C)C)cc3CC(=O)N([C@H](C)CO)C[C@@H]2C)cc1,inactive,inactive,inactive
Nc1nc(CO)cs1,inactive,inactive,inactive
C[C@H](CO)N1C[C@H](C)[C@H](CN(C)S(=O)(=O)c2ccccc2)Oc2ncc(Br)cc2C1=O,inactive,inactive,inactive
Cc1noc(C)c1NC(=O)N(C)C[C@@H]1Oc2ccc(NS(C)(=O)=O)cc2C(=O)N([C@H](C)CO)C[C@@H]1C,inactive,inactive,inactive
Cc1ccc(S(=O)(=O)N(C)C[C@H]2Oc3ccc(NC(=O)NC(C)C)cc3CC(=O)N([C@H](C)CO)C[C@H]2C)cc1,inactive,inactive,inactive
C[C@@H]1CN([C@@H](C)CO)C(=O)c2cc(NC(=O)CCCN(C)C)ccc2O[C@@H]1CN(C)C(=O)NC1CCCCC1,inactive,inactive,inactive
COc1ccc(NC(=O)N(C)C[C@@H]2Oc3ccc(NS(C)(=O)=O)cc3CC(=O)N([C@H](C)CO)C[C@@H]2C)cc1,inactive,inactive,inactive
COc1ccc(S(=O)(=O)N[C@H]2CC[C@H](CCNC(=O)CN3CCOCC3)O[C@H]2CO)cc1,inactive,inactive,inactive
FC(F)(Cl)C(F)(F)Cl,inactive,inactive,inactive
C[C@@H]1CN([C@@H](C)CO)C(=O)c2cc(NC(=O)NC3CCCCC3)ccc2O[C@@H](C)CCCCO[C@H]1CN(C)C(=O)Nc1ccc2c(c1)OCO2,active,active,inactive
C[C@H](CO)N1C[C@H](C)[C@H](CN(C)Cc2ccc(-c3ccccc3)cc2)Oc2ccc(NC(=O)Nc3ccc4c(c3)OCO4)cc2CC1=O,inactive,active,inactive
O=C(NO)c1ccc(C(=O)N/N=C/c2cccc(B(O)O)c2)cc1,inactive,inactive,inactive
CC(=N)NCc1cccc(CN)c1,inactive,inactive,inactive
CCCNC(=O)N[C@@H]1C=C[C@H](CC(=O)N2CCN(C)CC2)O[C@H]1CO,inactive,inactive,inactive
C[C@H](CO)N1C[C@H](C)[C@@H](CN(C)C(=O)Cc2ccccc2)OCCCC[C@H](C)Oc2ccc(NS(=O)(=O)c3ccc(F)cc3)cc2C1=O,inactive,inactive,inactive
C[C@@H]1CN([C@H](C)CO)C(=O)c2cc(C#CC3CCCCC3)cnc2O[C@H]1CN(C)C(=O)Cc1ccccn1,inactive,inactive,inactive
COc1ccc(NC(=O)Nc2ccc3c(c2)C(=O)N([C@@H](C)CO)C[C@H](C)[C@H](CN(C)C(=O)Cc2ccccc2)OCCCC[C@H](C)O3)cc1,inactive,inactive,inactive

SMILES,cytotoxicity call (HSkMC),cytotoxicity call (HepG2),growth inhibition call (S. aureus RN4220)
C[C@@H]1CCCCO[C@H](CN(C)Cc2ccc(Cl)c(Cl)c2)[C@@H](C)CN([C@@H](C)CO)C(=O)c2cc(NC(=O)Nc3ccc(F)cc3)ccc2O1,inactive,active,inactive
C[C@H]1CCc2cc(F)ccc2N1,inactive,inactive,inactive
C[C@H](CO)N1C[C@H](C)[C@H](CN(C)S(C)(=O)=O)Oc2c(NC(=O)NC3CCCCC3)cccc2C1=O,inactive,inactive,inactive
CCCC(=O)Nc1ccc2c(c1)OC[C@H](C)N(S(=O)(=O)c1cn(C)cn1)C[C@H](C)[C@@H](OC)CN(C)C2=O,inactive,inactive,inactive
Cc1ccc(NC(=O)n2c3ccccc3c3ccccc32)cc1,inactive,active,inactive
Cc1noc(C)c1NC(=O)N(C)C[C@@H]1OCCCC[C@@H](C)Oc2ccc(NC(=O)Nc3ccccc3)cc2C(=O)N([C@H](C)CO)C[C@@H]1C,inactive,inactive,inactive
COCCOC(=O)N1C(=O)[C@@]2(c3cc(C#CC4(O)CCCCCC4)ccc31)[C@H](C(=O)N1CCN(c3ncccn3)CC1)[C@H]1C(=O)O[C@H](c3ccccc3)[C@H](c3ccccc3)N1[C@@H]2c1ccc(OCCO)cc1,inactive,inactive,inactive
CN1CCC(=C2c3ccccc3CCc3sccc32)CC1.O=C(O)CC(O)C(=O)O,inactive,inactive,inactive
C[C@@H]1CCCCO[C@H](CN(C)C(=O)NC2CCCCC2)[C@@H](C)CN([C@H](C)CO)C(=O)c2cc(NS(=O)(=O)c3ccc(F)cc3)ccc2O1,inactive,inactive,inactive
CC1CCC2C(C)(C)C3CC12CCC3(C)O (centres undefined),inactive,inactive,inactive
CC(=O)Nc1nnc(-c2ccno2)o1,inactive,inactive,inactive
Cc1noc(C)c1S(=O)(=O)Nc1ccc2c(c1)C(=O)N([C@@H](C)CO)C[C@H](C)[C@H](CN(C)S(=O)(=O)c1c(C)noc1C)O2,inactive,inactive,inactive
CC(C)NC(=O)N[C@H]1C=C[C@H](CC(=O)O)O[C@@H]1CO,inactive,inactive,inactive
C[C@@H]1CCCCO[C@@H](CN(C)Cc2ccc(C(F)(F)F)cc2)[C@H](C)CN([C@H](C)CO)C(=O)c2cc(NC(=O)NC3CCCCC3)ccc2O1,inactive,active,inactive
COc1ccc(NC(=O)Nc2ccc3c(c2)C(=O)N([C@@H](C)CO)C[C@@H](C)[C@H](CN(C)S(=O)(=O)c2cccs2)OCCCC[C@H](C)O3)cc1,inactive,inactive,inactive
C[C@@H]1CN([C@H](C)CO)C(=O)c2c(c3ccccc3n2C)-c2ccccc2CO[C@H]1CN(C)Cc1ccccc1C(F)(F)F,active,active,inactive
Cc1ccc(S(=O)(=O)N(C)C[C@@H]2OCCCC[C@H](C)Oc3ccc(NS(=O)(=O)c4ccc(F)cc4)cc3C(=O)N([C@@H](C)CO)C[C@H]2C)cc1,inactive,active,inactive
CO[C@H]1CN(C)C(=O)c2cc(NS(C)(=O)=O)ccc2OC[C@H](C)N(C(=O)C2CCOCC2)C[C@@H]1C,inactive,inactive,inactive
C[C@@H]1CN([C@H](C)CO)C(=O)CCCn2cc(nn2)CO[C@@H]1CN(C)C(=O)Nc1ccc(C(F)(F)F)cc1,inactive,inactive,inactive
Cc1cn([C@@H]2C[C@H](O)[C@@H](CO)O2)c(=O)[nH]c1=O,inactive,inactive,inactive

SMILES,cytotoxicity call (HSkMC),cytotoxicity call (HepG2),growth inhibition call (S. aureus RN4220)
C[C@@H]1CN([C@@H](C)CO)C(=O)c2cc(NS(=O)(=O)c3cccs3)ccc2O[C@H]1CN(C)S(=O)(=O)c1ccccc1,inactive,inactive,inactive
O=C(CN1CCOCC1)N[C@@H]1CC[C@H](CCn2cc(C3CC3)nn2)O[C@H]1CO,inactive,inactive,inactive
C[C@@H]1CN([C@@H](C)CO)C(=O)c2cc(NS(C)(=O)=O)ccc2O[C@H]1CN(C)S(C)(=O)=O,inactive,inactive,inactive
CN(C)CC(=O)N[C@H]1CC[C@@H](CCn2cc(CN(C)C)nn2)O[C@H]1CO,inactive,inactive,inactive
C[C@@H]1CCCCO[C@@H](CN(C)S(=O)(=O)c2ccc(F)cc2)[C@@H](C)CN([C@@H](C)CO)C(=O)c2cc(NS(=O)(=O)c3ccc(Cl)cc3)ccc2O1,inactive,inactive,inactive
CC12CCC(=O)C=C1CCC1C2C(O)CC2(C)C1CCC2(O)C(=O)COC(=O)CCC(=O)O (centres undefined),inactive,inactive,inactive
O=C(N[C@H]1CC[C@@H](CCn2cc(C3(O)CCCC3)nn2)O[C@H]1CO)C1CCOCC1,inactive,inactive,inactive
O=C(N1CCOCC1)[C@@]1(CCS(=O)(=O)c2ccccc2)N=C(c2ccc(OCCCO)cc2)O[C@H]1c1ccccc1,inactive,inactive,inactive
COc1ccc(NC(=O)N(C)C[C@@H]2OCCCC[C@@H](C)Oc3ccc(NS(=O)(=O)c4ccc(Cl)cc4)cc3C(=O)N([C@H](C)CO)C[C@@H]2C)cc1,inactive,inactive,inactive
Cc1noc(C)c1S(=O)(=O)Nc1cccc2c1O[C@@H](CN(C)Cc1ccccc1)[C@@H](C)CN([C@H](C)CO)C2=O,inactive,inactive,inactive
C[C@H]1CN([C@@H](C)CO)C(=O)Cc2cc(NC(=O)Cn3cnnn3)ccc2O[C@H]1CN(C)Cc1ccncc1,inactive,inactive,inactive
C[C@H]1CN([C@@H](C)CO)C(=O)c2cccc(NC(=O)c3cnccn3)c2O[C@H]1CN(C)C(=O)Nc1ccccc1,inactive,inactive,inactive
C[C@@H]1CN([C@H](C)CO)C(=O)c2cc(NC(=O)Nc3ccccc3)ccc2O[C@@H](C)CCCCO[C@H]1CN(C)S(=O)(=O)c1ccccc1,inactive,inactive,inactive
C[C@@]1(C2CC2)Cc2cnnn2CCN1,inactive,inactive,inactive
COc1ccc(S(=O)(=O)N(C)C[C@H]2Oc3c(NC(=O)C4CC4)cccc3C(=O)N([C@H](C)CO)C[C@@H]2C)cc1,inactive,inactive,inactive
C[C@@H]1CCCCO[C@H](CN(C)C(=O)C2CCCCC2)[C@@H](C)CN([C@@H](C)CO)C(=O)c2cc(NC(=O)c3ccccc3)ccc2O1,inactive,inactive,inactive
C[C@H]1CCCCO[C@@H](CN(C)Cc2ccc3c(c2)OCO3)[C@@H](C)CN([C@@H](C)CO)C(=O)c2cc(NC(=O)C3CCCCC3)ccc2O1,inactive,inactive,inactive
CC(C)(C)N.CCCC(NC(C)C(=O)N1C(C(=O)O)CC2CCCCC21)C(=O)OCC (centres undefined),inactive,inactive,inactive
